Measurements as given in paper PMC4336329 (PLoS ONE, 2015).
The campaign covered roughly 310,000 compounds. About 14,000 (4.5%) showed an effect of 50% or more. Effects have a minus sign here. Some of the results follow.

Target: human ether-à-go-go-related gene (hERG) potassium channel (human, UniProt Q12809)
Assay: primary screen, population patch clamp on CHO cells stably expressing hERG
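Further: peak tail current of the secondary pulse compared with the same well before compound.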

Chain of human ether-à-go-go-related gene (hERG) potassium channel (Q12809 whole entry, looked up): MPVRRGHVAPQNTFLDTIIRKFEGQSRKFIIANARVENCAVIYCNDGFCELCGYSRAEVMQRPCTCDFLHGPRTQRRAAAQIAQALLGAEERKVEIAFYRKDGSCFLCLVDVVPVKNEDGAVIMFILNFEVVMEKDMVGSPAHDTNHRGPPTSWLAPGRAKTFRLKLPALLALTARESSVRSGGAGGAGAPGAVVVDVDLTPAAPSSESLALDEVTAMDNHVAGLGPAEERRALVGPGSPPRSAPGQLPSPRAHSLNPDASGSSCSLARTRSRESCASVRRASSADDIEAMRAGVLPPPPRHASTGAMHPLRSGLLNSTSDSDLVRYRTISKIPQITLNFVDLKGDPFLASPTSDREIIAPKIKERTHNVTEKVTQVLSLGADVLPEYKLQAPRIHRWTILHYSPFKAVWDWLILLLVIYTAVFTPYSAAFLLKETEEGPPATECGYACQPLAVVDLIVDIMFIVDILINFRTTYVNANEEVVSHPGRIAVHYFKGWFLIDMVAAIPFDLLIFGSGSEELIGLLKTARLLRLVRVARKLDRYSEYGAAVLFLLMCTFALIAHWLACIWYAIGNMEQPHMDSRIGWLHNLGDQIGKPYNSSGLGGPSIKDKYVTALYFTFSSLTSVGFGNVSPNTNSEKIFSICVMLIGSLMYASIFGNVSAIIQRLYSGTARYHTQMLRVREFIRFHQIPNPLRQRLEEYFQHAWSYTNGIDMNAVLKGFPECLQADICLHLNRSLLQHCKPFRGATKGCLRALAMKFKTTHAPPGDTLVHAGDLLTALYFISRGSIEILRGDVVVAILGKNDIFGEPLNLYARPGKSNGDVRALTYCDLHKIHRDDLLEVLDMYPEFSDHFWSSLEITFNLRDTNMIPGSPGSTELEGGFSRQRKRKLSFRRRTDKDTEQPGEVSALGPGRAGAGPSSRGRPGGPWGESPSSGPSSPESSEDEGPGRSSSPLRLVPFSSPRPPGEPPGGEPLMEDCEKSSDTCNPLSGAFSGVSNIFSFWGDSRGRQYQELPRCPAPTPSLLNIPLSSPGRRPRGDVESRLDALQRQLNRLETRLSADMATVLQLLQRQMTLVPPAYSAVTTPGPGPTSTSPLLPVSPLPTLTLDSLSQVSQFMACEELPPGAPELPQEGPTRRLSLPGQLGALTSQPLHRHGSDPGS

| SMILES | hERG current change (%, negative = inhibition) at 10uM |
| --- | --- |
| O=C(CNC(=O)c1ccco1)Nc1cccc(Cl)c1 | -10.8% |
| COc1ccc(Cl)cc1C(=O)Nc1ccc2c(c1)OCCO2 | 11% |
| CCn1cc(C(=O)O)c(=O)c2cc(F)c(N3CCNCC3)cc21 | 3.07% |
| Cc1nc2c(cnn2-c2ccccc2Cl)c(=O)n1-c1ccc(N2CCC(C)CC2)cc1 | 13.5% |
| COc1ccc(NC(=O)CSc2nc3ccccc3c(=O)n2CCCO)cn1 | -47.8% |
| CCOc1ccccc1CN1CCN(Cc2ccc(C)o2)C(CCO)C1 (stereo not shown) | -12.9% |
| NC(=O)CSc1nnc(-c2ccncc2)o1 | 16.7% |
| CN1CCN(c2ccc(NC(=O)c3ccc([N+](=O)[O-])o3)cc2Cl)CC1 | -57.3% |
| CC(=O)Oc1ccccc1-c1nc(C)nc(N(C)C(C)=O)n1 | 3.81% |
| Cc1ccc(NC(=O)Nc2ccc(F)cc2)nc1 | -6.78% |
| CCCCCCC(=O)c1c(C)[nH]c(C(=O)OCC)c1C | 13.5% |
| C=CCOc1nc2c(c(=O)n(C)c(=O)n2C)n1Cc1ccccc1 | -16.6% |
| COCCNC(=O)CSc1ncnc2sccc12 | 23.9% |
| Cc1ccc(C)c(Cn2c(C(C)O)nc3ccccc32)c1 (stereo not shown) | 3.5% |
| O=C(Cc1ccc([N+](=O)[O-])cc1)N1N=C2CCCCC2C1(O)C(F)(F)F (stereo not shown) | -19.7% |
| CCOc1ccccc1C(=O)NCC(=O)NCC1CCCCC1 | 12.2% |
| Cc1cccc(/C(N)=N/OC(=O)Cc2ccccc2)c1 | 37.9% |
| COc1ccc(CN(C)C(=O)c2ccc(OCC(=O)N3CCOCC3)c(OC)c2)cc1 | 2.93% |
| CN(C)C1=NP(N(C)C)(N(C)C)=NC(c2ccccc2)=N1 | -8.47% |
| CCOc1cc(NC(=S)NCC(C)C)c(OCC)cc1NC(=O)c1ccco1 | 10.4% |
| COc1ccc(CN2C(=O)CCC2(C)C(=O)NC2CCCCCC2)cc1 (stereo not shown) | -13.8% |
| Cc1cc(C)c2[nH]c(C)c(CN3CCCCCC3)c(=O)c2c1 | -14.6% |

| SMILES | hERG current change (%, negative = inhibition) at 10uM |
| --- | --- |
| CCOc1ccccc1NC(=O)C(OC(=O)c1cc(C)oc1C)c1ccccc1 (stereo not shown) | 4.39% |
| COc1cccc(C(=O)NCCS(=O)(=O)N2CCCCC2)c1 | 6.47% |
| CC(=O)c1c(C)n(CC2CCCO2)c2ccc(O)cc12 (stereo not shown) | 17.4% |
| COc1ccc(NC(=O)c2c(C)nn(Cc3ccccc3)c2Cl)cc1S(=O)(=O)N1CCOCC1 | 1.76% |
| CC(C)OCC(O)CN1CCN(CC(O)COc2ccc3c(c2)OCO3)CC1 (stereo not shown) | -33.3% |
| COc1ccc(NC(=O)c2ccccc2NS(C)(=O)=O)cc1OC | 20.1% |
| CC(NC(=S)Nc1cccc(C(F)(F)F)c1)C(C)(C)C (stereo not shown) | 5.04% |
| CC1(C)Cc2c(sc3nc(-c4cc5ccccc5o4)n(N)c(=O)c23)CO1 | -1.17% |
| CCN1C(=O)C(CC(=O)Nc2ccccc2Cl)N(NC(=O)c2cccc(F)c2)C1=S (stereo not shown) | 2.59% |
| Cc1ccc(C)c(NC(=O)CN(C)C(=O)c2cc([N+](=O)[O-])ccc2N2CCOCC2)c1 | -1.96% |
| Cc1cc(OCC(=O)N[C@H](C(=O)O)c2ccccc2)c2c3c(c(=O)oc2c1)CCC3 | 12.1% |
| Cc1cccc(CNS(=O)(=O)c2ccc(-c3cnc(C4CC4)o3)cc2)c1 | 23.3% |
| O=C(CCS(=O)(=O)c1cccc2nonc12)N1CCCc2ccccc21 | -8.24% |
| COc1cc(/C=N/NC(=O)CN2CCOCC2)ccc1OCc1ccccc1 | 5.45% |
| Oc1ccccc1/C=N/Nc1nccnc1Cl | -0.0796% |
| Cc1ccc(OCC(O)CN2CCN(CCO)CC2)c(C)c1.Cl (stereo not shown) | 4.18% |
| CCN(CC)c1ccc(S(=O)(=O)N2CCOCC2)cc1NC(=O)CN1CCc2ccccc2C1 | 1.56% |
| CN(C)CCCNC(=O)CCc1nc2ccccc2c(=O)[nH]1 | -12.2% |
| Cn1c(O)c(C2=c3ccccc3=NC2=O)[nH]c1=S | 11.8% |
| CSc1nc(NCCCO)c2c3c(sc2n1)CN(C)CC3 | -47.4% |
| Cc1onc(-c2ccccc2)c1NC(=O)Nc1ccc(OC(F)F)cc1 | -37.1% |
| O=C(NNC(=O)C1CCCC1)c1ccccc1F | 17.3% |

| SMILES | hERG current change (%, negative = inhibition) at 10uM |
| --- | --- |
| CC(=O)N1C(C)(C)CC(=NOC(=O)c2ccccc2)CC1(C)C | 14.6% |
| O=S(=O)(NCc1ccc2c(c1)OCO2)c1cccc2nsnc12 | -21.5% |
| COCCCNC(=O)COc1ccc(S(=O)(=O)NCc2ccccc2)cc1Cl | -10.6% |
| COc1cc(/C=C2\C(=N)N3N=C(N4CCOCC4)SC3=NC2=O)ccc1OC(=O)c1ccccc1 | 19.5% |
| COc1ccc(C(=O)Nc2ccc(N3CCN(C(C)=O)CC3)cc2)cc1[N+](=O)[O-] | 11.7% |
| Cc1ccc(SCC(=O)OCC(=O)NCCC2=CCCCC2)cc1 | 1.77% |
| CC(C)(C)OC(=O)NCCCCCc1nnc(SCC(=O)Nc2cccc(Cl)c2)o1 | -50.7% |
| Cc1ccc(-n2c(SCC(=O)N3CCCCC3)nc(O)cc2=O)cc1 | 16.1% |
| O=C(Cc1nnc(NC(=O)Nc2ccc(Cl)cc2)s1)NCc1ccccc1 | -0.286% |
| CCCC(=O)N=C1SC2CS(=O)(=O)CC2N1c1ccc(C(C)=O)cc1 (stereo not shown) | -21.8% |
| COc1cc(/C=C/C(=O)OCC(=O)c2c(N)n(C)c(=O)n(C)c2=O)ccc1OC(F)F | 6.4% |
| C/C(CC(c1ccccc1)c1c(O)c2ccccc2oc1=O)=N\Nc1ccc([N+](=O)[O-])cc1[N+](=O)[O-] (stereo not shown) | -0.104% |
| O=C(Nc1ccc(N2CCN(C(=O)c3ccco3)CC2)c(Cl)c1)c1c(F)c(F)c(F)c(F)c1F | -32.1% |
| CC(C)C(=O)Nc1cccc(C(=O)Nc2ccc(S(=O)(=O)Nc3nccs3)cc2)c1 | 8.32% |
| O=C(Nc1ccncc1)c1cc2ccccc2o1 | -15% |
| Cc1cc(C)nc(Sc2ccc([N+](=O)[O-])cc2[N+](=O)[O-])n1 | 6.47% |
| CCOc1cc(C(C(=O)NCC2CCCO2)N(C(=O)Cn2nnc3ccccc32)c2ccccc2OC)ccc1O (stereo not shown) | 1.54% |
| COCCNC(=O)NC(=O)COC(=O)C1(c2ccc(Cl)cc2)CC1 | 21.4% |
| O=C(/C=C/c1ccccc1)c1c(O)n(CCc2ccccc2)c(=O)[nH]c1=O | 3.08% |
| CCOC(=O)NC1(NC(C)C)Oc2ccccc2O1 | 14.2% |
| O=C(CN1CCN(Cc2ccc(Cl)cc2)C1=O)NCCCN1CCOCC1 | -2.85% |
| COc1ccc(CN2[C@@H](CC(=O)O)c3cc(C(F)(F)F)ccc3S2(=O)=O)cc1 | 16.9% |

| SMILES | hERG current change (%, negative = inhibition) at 10uM |
| --- | --- |
| O=C(COc1ccc(Br)cc1)Nc1nnc(-c2cccnc2)s1 | 7.67% |
| CC1CN=C(NCCc2ccccc2)S1 (stereo not shown) | 2% |
| O=C(NCc1ccc2c(c1)OCO2)c1ccc(=O)[nH]c1 | 1.61% |
| Cc1cc(C)n2nc(CNS(=O)(=O)c3ccc([N+](=O)[O-])cc3)nc2n1 | -18.6% |
| O=C(COC(=O)c1ccc2[nH]c3c(c2c1)CCCC3)Nc1ccc(Cl)cc1Cl | -2.62% |
| Cc1cccn2c(CN[C@@H]3CCCC[C@H]3c3ccccc3)c(C(=O)N3CCOCC3)nc12 | -12.9% |
| CCOC(=O)C1CCCN(Cc2c(C(=O)N3CCOCC3)nc3ccccn23)C1 (stereo not shown) | 8.12% |
| COc1cccc(OC)c1OCCOc1ccccc1OC(C)C | -24.4% |
| O=C(NC(=S)Nc1ccccc1N1CCOCC1)c1ccco1 | 9.73% |
| CCC(=O)O[C@@H]1[C@@H](OC(C)=O)[C@@]2(O)C(C[C@H](O)C2(C)C)[C@](C)(O)[C@H]2CC[C@@H]3[C@@H](O)[C@]12C[C@@]3(C)O (stereo partly shown) | 1.61% |
| CC(C)CN1C(=O)/C(=C/c2cccs2)NC1=S | 21.3% |
| CCn1c(C(=O)N2CCC(C(=O)N3CCN(c4ccccn4)CC3)CC2)cc2sccc21 | -60.5% |
| CCOC(=O)c1ccc(N2C(=O)C=CC2=O)cc1 | -5.04% |
| O=C(COc1ccccc1)NC1CCN(Cc2ccccc2)CC1 | -50.4% |
| CCc1ccc(NC(=O)C2CCN(S(=O)(=O)c3ccc4c(c3)NC(=O)CO4)CC2)cc1 | 9.11% |
| CCN(CC(=O)NC1CC1)S(=O)(=O)c1ccc(C)cc1 | 1.04% |
| O=C(NC1CC1)C1=C[C@@H](c2csc3ccccc23)C[C@@H](OCCCCO)O1 | -40% |
| O=C(CC1NCCNC1=O)Nc1ccc([N+](=O)[O-])cc1 (stereo not shown) | 5.02% |
| Cn1c(N)c(C(=O)COC(=O)CCOc2ccc(C(C)(C)C)cc2)c(=O)n(C)c1=O | -60.6% |
| CN(C)/C=C1\SC(=S)N(c2ccc(Br)cc2)C1=O | -4.75% |
| CC(C)(C)c1ccc(-c2nnc(SCC(=O)c3ccc4c(c3)OCCO4)o2)cc1 | 12.3% |
| C[C@]1(C(=O)O)C=C[C@@H](Cc2ccccc2)N1C(=O)c1ccccc1 | 11.8% |
